Whole data set: some 33,000 sequences, median “E-score (-0.5 to 0.5)” near -0.013, cut for the highest 2% near 0.3. Some of the results follow.
These sequences were tested against T1, Msn1 (UniProt P22148) (assay: PBM E-score (8-mer binding enrichment) (E-score (-0.5 to 0.5)); higher = stronger / more preferred TF binding; most listed sequences are background and not binding sites). Details: protein concentration: 200 nM; construct: GST-full length.
T1 sequence: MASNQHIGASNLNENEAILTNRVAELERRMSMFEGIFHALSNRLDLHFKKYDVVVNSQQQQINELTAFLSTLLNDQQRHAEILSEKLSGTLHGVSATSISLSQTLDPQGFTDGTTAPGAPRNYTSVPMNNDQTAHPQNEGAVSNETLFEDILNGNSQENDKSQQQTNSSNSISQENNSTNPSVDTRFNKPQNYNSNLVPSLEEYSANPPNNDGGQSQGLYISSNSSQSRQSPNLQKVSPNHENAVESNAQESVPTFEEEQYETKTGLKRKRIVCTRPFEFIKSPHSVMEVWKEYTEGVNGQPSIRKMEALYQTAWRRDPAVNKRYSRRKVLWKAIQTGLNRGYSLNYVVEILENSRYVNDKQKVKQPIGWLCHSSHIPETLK
Method in brief: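 E-scores (a modified Wilcoxon-Mann-Whitney statistic) were assigned by the Universal PBM Analysis Suite to every ungapped eight-base word pooled with its reverse complement. The input came from universal all-10-mer Agilent arrays made double-stranded by primer extension and probed with GST-tagged yeast transcription factors at about 100-200 nM. Fluorescent anti-GST detected bound protein, and masliner normalised the scans.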

Sequence	PBM E-score
ACTAGGAC	0.426
GAAAGTGA	0.0539
AACCAGAA	0.12
AAATTACT	0.0929
CTGAATTA	-0.0118
CTGCTAGC	-0.214
AGCGCAAT	0.0013
CCGACCAC	0.00118
CAGCAAAC	-0.0316
GATATGTA	0.12
CCCTACTA	-0.182
CGGCTCGC	0.0636
CATTGAAG	-0.031
TTAGCGAA	0.0478
ACTTTTAT	0.185
ATCATTTG	0.0889
GGGTAATA	-0.0334
TGGGTACA	0.142
TAGCGTGA	-0.0734
AATAAGAT	0.0902
CGATACGA	0.0206
ATGCTGAC	-0.0547
GAAGTAGA	0.114
ACAAGCAT	0.1
AGCCACAG	-0.271

Sequence	PBM E-score
TCACTGCA	0.173
TAAACGGA	0.177
CGATGCTC	-0.191
CCCCTACC	-0.3
ACAAAAAG	0.216
CAATTCCA	-0.0856
CTTACTGA	-0.0638
CGTTATGC	-0.201
ACTTTGTA	0.129
CGGCCTAC	-0.0105
ATCTACAC	0.00502
CCCGATAG	-0.115
GTTACATA	0.0624
ACTTTGTG	0.0353
GCCTGCAC	-0.209
ACGCGGGA	0.0676
ACCAAATA	0.0773
CGCCACGA	-0.0719
AACGGATG	0.0907
CGTCTACA	-0.13
CTCTCATA	-0.111
GTTCGGTA	0.142
TGGCCGAA	0.0465
CATGACAC	0.193
CGATGCTA	-0.00656

Sequence	PBM E-score
CCCTAAGC	-0.243
CAGGGTGA	-0.271
CGTGCGCA	-0.0408
CCAACATA	0.133
CAAGTCTG	-0.106
AGTCGCTC	-0.132
ATCTGAAC	-0.103
ACTTCTGG	-0.00562
CAGCATTC	-0.204
CCTACGCA	-0.0988
TAACTTGA	0.111
CGTCTTCC	-0.106
GCCATCAA	0.0351
AGCCTACT	-0.232
ATCGTCCC	-0.00418
AAGCGTCG	-0.0583
GTTGCCGA	0.104
GACCGAGA	0.174
AACCTCGC	-0.0613
CCCTCCAG	-0.397
AAGGTGAT	-0.0893
CGTGCCAG	-0.149
AGGCAGCA	-0.00913
ACCACAAA	0.104
CCTTAGAC	-0.0312

Sequence	PBM E-score
AATATAAT	0.165
CCGACGAC	-0.0326
CTCCATTA	-0.168
TAGTAGGA	0.0267
TCCAACAA	0.0926
ACTAACAA	0.143
GAATTCGC	0.0812
ATGCTCCA	-0.151
AAAAGAGG	-0.179
CGACGCCG	0.0839
CAATCTCG	0.112
GACGTATC	-0.0997
AAGGACGA	0.0414
AGGTATAC	0.0069
ACCGGGCC	-0.13
ACCGACAC	0.152
GCTTTGAC	0.0601
AGGCCTCG	-0.199
AATATTCG	0.119
AGATGACT	-0.283
GCAAACGC	0.123
CCCTACCC	-0.246
GACGTGCA	0.124
CAATGCGC	0.142
TGGGAAAA	-0.135

Sequence	PBM E-score
TCTCAGAA	-0.0134
AATATTGA	0.198
AAGCATTA	-0.0789
TCAAGTGA	0.0446
CTACGGGC	-0.338
ACACCGTA	-0.0815
ACTTCGCA	0.03
CAGGTAGC	-0.0607
CCTCATCC	-0.351
CTGGGGAA	-0.417
AGAACCTC	-0.122
TAATTGTA	0.18
CCGTAGCG	-0.107
ATCATCAC	0.04
ACAGAAGA	0.0289
GTACGCTA	-0.0968
CCACAAAG	0.0847
CCGAATAA	0.156
ACCCACAT	0.0586
ACGGTGTG	-0.0943
ACATTTTG	0.34
TCCTCAGA	0.083
CGCGCAAG	0.0558
CAACAACC	-0.00184
CCTCTGAC	-0.0611

Sequence	PBM E-score
CTAAGTTA	0.0942
AAGATCAT	0.0396
CGAGCCAC	-0.079
CTGCGAAG	-0.179
AACAGAGC	-0.0188
ATAGACGC	0.112
ATCAGGAA	-0.0755
CCGCTGCA	-0.0969
CTGTGACA	0.316
AACATCTG	-0.0495
AGCCGAGA	-0.0207
GGCACCCC	-0.342
ATGCCCCA	-0.222
CGACTAGC	-0.201
AGACACGG	0.16
CTGTCTTA	0.181
CAAGGAGG	-0.025
AATCTTCT	-0.0303
AGAATCCG	0.0519
TCGGGAGA	0.014
GATTTAAA	0.00211
CGTCTTGC	-0.0596
GCCCTTTA	-0.318
GCTTGTTA	-0.0427
AATAAGCT	0.0203

Sequence	PBM E-score
ACCACCAT	-0.19
GCTATAGC	-0.284
CCCCAGTC	-0.265
CAGCAATA	0.0275
AAGCTAGG	-0.0282
TTCACGAA	0.0509
ATGGCTTA	0.0444
ACCTATCG	0.0547
TACTTTAA	0.0518
ACAAGGGG	-0.00205
AGGGCTTC	-0.126
GGCCGATA	0.169
ATCAAGAT	-0.00683
GCCATTAC	-0.00577
CAGGCCCC	-0.18
CCAATATA	-0.096
CATTCCGG	0.0569
AGCATAGG	-0.258
ACACTAGA	-0.0495
CGGATATC	0.0424
ATAGTCGA	0.141
TCTATAAA	0.175
CCCATGCA	-0.151
ACAACTAT	0.12
CATCTTAC	-0.0364

Sequence	PBM E-score
ATTGATGA	0.145
CGGAACCA	0.114
CGGCCCAA	-0.202
ACCGCGAG	0.00685
TTAGTAAA	0.142
GACTAGCC	-0.0281
AAGTAGGC	-0.101
AGATGCCG	-0.0595
AGGGGATG	-0.0972
ACGATGGA	-0.0467
ACTACAGC	-0.26
AAATATAA	0.272
CCACGAGG	0.0402
CTGTCCAC	0.184
ACAATTTG	0.165
GGTGGGGA	0.0146
AAACTGTA	0.0343
CACTAAAC	0.024
AAACGGCG	0.104
AGTGTAAT	-0.0103
CCGGGCGA	-0.0558
GCATAATA	0.236
AGGACGGA	0.131
AAGCAGGG	-0.119
ATGACACG	0.214

Sequence	PBM E-score
AAACCGAG	0.0108
AGCGTCGC	-0.146
AGGGCAAA	0.00167
ATGTGTTC	-0.0705
GCGCAAAC	0.00686
GCTGCAAC	-0.162
AGCGAGGA	-0.124
CCGGGCGC	-0.213
CATGAAAG	0.0334
CATACGGA	0.158
CACATGAG	-0.101
ATGCCCGC	-0.121
TAGACGCA	0.0307
ACTTAAAC	0.115
CAACTACC	-0.00232
CGAGCGCA	0.14
GCCAGCAC	-0.0728
GTTAGGAA	-0.0822
TCCGGAAA	0.248
